Measured values: ChEMBL document CHEMBL5303300, “EUbOPEN Chemogenomics Library - Multiplex” (2023)
Some entries of the source have several records that differ or are many. Only these are listed. An entry can have further records. The records of an entry are repeats in other runs, samples, wells, individuals or studies.

How the values were obtained:
U2OS = experiment: Multiplex assay against U2OS; format: toxicity, cell-based; details: human, number of replicates 2
Outline: (§1)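 Imaging took place on a CQ1 microscope at 37°C and 5% CO2 once compound had been added to live cells stained at seeding with Hoechst33342, BioTracker Green Microtubule Cytoskeleton Dye, MitoTracker Red and Annexin V Alexa Fluor 680. CellPathfinder machine-learning gating classed cells as Hoechst high-intensity objects or normal cells, classed normal cells as having healthy, pyknosed or fragmented nuclei, and classed pyknosed cells as mitotic or apoptotic. Tubulin, mitochondrial-mass and membrane-permeability phenotypes are per cents of the healthy-nucleus cells.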

Fibroblast = experiment: Multiplex assay against human fibroblast; format: toxicity, cell-based; details: number of replicates 2; outline: as §1
[1] = 12 h, 1 µM, compound concentration 1 uM
[2] = 12 h, 10 µM, compound concentration 10 uM
[3] = 24 h, 1 µM, compound concentration 1 uM
[4] = 24 h, 10 µM, compound concentration 10 uM
[5] = 48 h, 1 µM, compound concentration 1 uM
[6] = 48 h, 10 µM, compound concentration 10 uM

Row | SMILES | Population Mitotic Cells (%) (U2OS; [1]) | Population Fragmented Nuclei (%) (U2OS; [2]) | Total Cell Count (U2OS; [2]) | Population Fragmented Nuclei (%) (U2OS; [3]) | Population Fragmented Nuclei (%) (U2OS; [4]) | Total Cell Count (U2OS; [4]) | Total Cell Count (U2OS; [5]) | Total Cell Count (U2OS; [6]) | Total Cell Count (U2OS; [1]) | Total Cell Count (U2OS; [3]) | Population Mitotic Cells (%) (U2OS; [4]) | also measured
1 | O=C(Nc1ccnc(NC(=O)C2CC2)c1)c1c(Cl)cccc1Cl | 66% and 15% | 36% and 6% | 19 and 183 | 80% and 6% | 48% and 7% | 31 and 167 | 117 and 366 | 38 and 170 |  |  |  | Population Fragmented Nuclei (%) (U2OS; [1]): 78% and 4%; Population Healthy Nuclei (%) (U2OS; [1]): 19% and 82%; Population Pyknosed Nuclei (%) (U2OS; [1]): 2% and 13%; Population Membrane Permeable-Phenotype (%) (U2OS; [2]): 14% and 2%; Population Healthy Nuclei (%) (U2OS; [3]): 16% and 81%; Population Mitotic Cells (%) (U2OS; [3]): 40% and 9%; Population Membrane Permeable-Phenotype (%) (U2OS; [4]): 30% and 4%; Population Fragmented Nuclei (%) (U2OS; [5]): 63% and 7%; Population Fragmented Nuclei (%) (U2OS; [6]): 60% and 15%; Population Healthy Nuclei (%) (U2OS; [6]): 15% and 48%; Population Tubulin-Different-Phenotype (%) (Fibroblast; [5]): 21% and 6%
2 | O=C1NC(=O)C(c2ccccc2[N+](=O)[O-])=C1Nc1ccc(O)c(Cl)c1 | 0% and 61% |  |  | 17% and 2% |  |  |  |  |  |  |  | Population Mitotic Cells (%) (U2OS; [2]): 20% and 62%; Population Apoptotic (%) (Fibroblast; [1]): 12% and 46%
3 | Cn1cc(-c2ccc(-c3cncc(Cl)c3N3CCC4(CCNC4=O)CC3)cc2)cn1 |  | 28% and 6% | 42 and 140 | 3% and 27% | 19% and 5% | 42 and 174 | 615 and 58 | 216 and 45 | 261 and 42 | 339 and 43 | 11% and 39% | Population Fragmented Nuclei (%) (U2OS; [1]): 4% and 28%; Population Mitotic Cells (%) (U2OS; [2]): 0% and 50%; Population Fragmented Nuclei (%) (U2OS; [5]): 4% and 27%; Population Mitotic Cells (%) (U2OS; [5]): 29% and 0%; Population Mitochondria Different-Phenotype (%) (U2OS; [6]): 20% and 4%; Population Membrane Permeable-Phenotype (%) (Fibroblast; [5]): 28% and 5%
4 | C=CC(=O)Nc1cccc(C)c1Nc1ncc2cc(-c3c(Cl)c(OC)cc(OC)c3Cl)ccc2n1 |  | 21% and 5% | 33 and 163 | 18% and 3% |  | 35 and 168 | 101 and 579 | 29 and 152 | 54 and 243 | 78 and 295 |  | Population Pyknosed Nuclei (%) (U2OS; [1]): 20% and 5%; Population Mitotic Cells (%) (U2OS; [6]): 22% and 6%; Population Hoechst High Intensity Objects (%) (Fibroblast; [2]): 28% and 0%; Population Hoechst High Intensity Objects (%) (Fibroblast; [4]): 39% and 0%; Population Hoechst High Intensity Objects (%) (Fibroblast; [6]): 47% and 0%
5 | NC(=O)c1ccc(-c2nc(-c3ccc4c(c3)OCCO4)c(-c3ccccn3)[nH]2)cc1 | 60% and 14% | 7% and 27% | 197 and 36 |  | 3% and 31% | 254 and 47 | 164 and 508 | 74 and 357 |  |  | 16% and 100% | Population Apoptotic (%) (U2OS; [4]): 84% and 0%; Population Tubulin-Different-Phenotype (%) (Fibroblast; [2]): 16% and 5%; Population Pyknosed Nuclei (%) (Fibroblast; [3]): 6% and 20%
6 | CC(C)c1cc(-c2ccc(F)c3ccccc23)nc(N)n1 |  | 31% and 4% | 19 and 229 |  | 35% and 5% | 31 and 339 | 68 and 782 | 32 and 689 | 245 and 33 | 344 and 50 | 0% and 34% | Population Membrane Permeable-Phenotype (%) (U2OS; [2]): 20% and 4%; Population Mitochondria Different-Phenotype (%) (U2OS; [2]): 20% and 1%; Population Apoptotic (%) (U2OS; [3]): 52% and 0%; Population Apoptotic (%) (U2OS; [5]): 0% and 40%; Population Fragmented Nuclei (%) (U2OS; [6]): 18% and 4%; Population Membrane Permeable-Phenotype (%) (U2OS; [6]): 15% and 2%; Population Mitochondria Different-Phenotype (%) (U2OS; [6]): 15% and 1%; Population Pyknosed Nuclei (%) (U2OS; [6]): 18% and 4%; Population Mitotic Cells (%) (Fibroblast; [6]): 0% and 45%
7 | c1ccc2c(-c3coc4cc(-c5ccc(N6CCNCC6)cc5)cnc34)ccnc2c1 |  |  |  |  |  |  | 66 and 331 |  | 23 and 139 | 36 and 194 |  | Population Apoptotic (%) (U2OS; [1]): 0% and 73%; Population Healthy Nuclei (%) (Fibroblast; [2]): 31% and 1%; Population Healthy Nuclei (%) (Fibroblast; [4]): 6% and 20%; Population Mitochondria Different-Phenotype (%) (Fibroblast; [4]): 0% and 30%
